# Measurements reported in the supplement of paper PMC12423691.
# The list shows a part of the results. Binding of human transcription factors and regulators to the viral nucleoprotein by AlphaScreen, crude cell-free proteins, amounts not normalised, one pass. Fold of the Venus control; higher = more signal. No active / inactive call. Single-pass screen; sequences are the whole Swiss-Prot entries looked up by name.
# B1: CLOCK, O15516 (protein)
# chain: MLFTVSCSKMSSIVDRDDSSIFDGLVEEDDKDKAKRVSRNKSEKKRRDQFNVLIKELGSMLPGNARKMDKSTVLQKSIDFLRKHKEITAQSDASEIRQDWKPTFLSNEEFTQLMLEALDGFFLAIMTDGSIIYVSESVTSLLEHLPSDLVDQSIFNFIPEGEHSEVYKILSTHLLESDSLTPEYLKSKNQLEFCCHMLRGTIDPKEPSTYEYVKFIGNFKSLNSVSSSAHNGFEGTIQRTHRPSYEDRVCFVATVRLATPQFIKEMCTVEEPNEEFTSRHSLEWKFLFLDHRAPPIIGYLPFEVLGTSGYDYYHVDDLENLAKCHEHLMQYGKGKSCYYRFLTKGQQWIWLQTHYYITYHQWNSRPEFIVCTHTVVSYAEVRAERRRELGIEESLPETAADKSQDSGSDNRINTVSLKEALERFDHSPTPSASSRSSRKSSHTAVSDPSSTPTKIPTDTSTPPRQHLPAHEKMVQRRSSFSSQSINSQSVGSSLTQPVMSQATNLPIPQGMSQFQFSAQLGAMQHLKDQLEQRTRMIEANIHRQQEELRKIQEQLQMVHGQGLQMFLQQSNPGLNFGSVQLSSGNSSNIQQLAPINMQGQVVPTNQIQSGMNTGHIGTTQHMIQQQTLQSTSTQSQQNVLSGHSQQTSLPSQTQSTLTAPLYNTMVISQPAAGSMVQIPSSMPQNSTQSAAVTTFTQDRQIRFSQGQQLVTKLVTAPVACGAVMVPSTMLMGQVVTAYPTFATQQQQSQTLSVTQQQQQQSSQEQQLTSVQQPSQAQLTQPPQQFLQTSRLLHGNPSTQLILSAAFPLQQSTFPQSHHQQHQSQQQQQLSRHRTDSLPDPSKVQPQ
# B2: NFATC3, Q12968 (protein)
# chain: MTTANCGAHDELDFKLVFGEDGAPAPPPPGSRPADLEPDDCASIYIFNVDPPPSTLTTPLCLPHHGLPSHSSVLSPSFQLQSHKNYEGTCEIPESKYSPLGGPKPFECPSIQITSISPNCHQELDAHEDDLQINDPEREFLERPSRDHLYLPLEPSYRESSLSPSPASSISSRSWFSDASSCESLSHIYDDVDSELNEAAARFTLGSPLTSPGGSPGGCPGEETWHQQYGLGHSLSPRQSPCHSPRSSVTDENWLSPRPASGPSSRPTSPCGKRRHSSAEVCYAGSLSPHHSPVPSPGHSPRGSVTEDTWLNASVHGGSGLGPAVFPFQYCVETDIPLKTRKTSEDQAAILPGKLELCSDDQGSLSPARETSIDDGLGSQYPLKKDSCGDQFLSVPSPFTWSKPKPGHTPIFRTSSLPPLDWPLPAHFGQCELKIEVQPKTHHRAHYETEGSRGAVKASTGGHPVVKLLGYNEKPINLQMFIGTADDRYLRPHAFYQVHRITGKTVATASQEIIIASTKVLEIPLLPENNMSASIDCAGILKLRNSDIELRKGETDIGRKNTRVRLVFRVHIPQPSGKVLSLQIASIPVECSQRSAQELPHIEKYSINSCSVNGGHEMVVTGSNFLPESKIIFLEKGQDGRPQWEVEGKIIREKCQGAHIVLEVPPYHNPAVTAAVQVHFYLCNGKRKKSQSQRFTYTPVLMKQEHREEIDLSSVPSLPVPHPAQTQRPSSDSGCSHDSVLSGQRSLICSIPQTYASMVTSSHLPQLQCRDESVSKEQHMIPSPIVHQPFQVTPTPPVGSSYQPMQTNVVYNGPTCLPINAASSQEFDSVLFQQDATLSGLVNLGCQPLSSIPFHSSNSGSTGHLLAHTPHSVHTLPHLQSMGYHCSNTGQRSLSSPVADQITGQPSSQLQPITYGPSHSGSATTASPAASHPLASSPLSGPPSPQLQPMPYQSPSSGTASSPSPATRMHSGQHSTQAQSTGQGGLSAPSSLICHSLCDPASFPPDGATVSIKPEPEDREPNFATIGLQDITLDDVNEIIGRDMSQISVSQGAGVSRQAPLPSPESLDLGRSDGL
# B3: ZSCAN21, Q9Y5A6 (protein)
# chain: MMTKVLGMAPVLGPRPPQEQVGPLMVKVEEKEEKGKYLPSLEMFRQRFRQFGYHDTPGPREALSQLRVLCCEWLRPEIHTKEQILELLVLEQFLTILPQELQAWVQEHCPESAEEAVTLLEDLERELDEPGHQVSTPPNEQKPVWEKISSSGTAKESPSSMQPQPLETSHKYESWGPLYIQESGEEQEFAQDPRKVRDCRLSTQHEESADEQKGSEAEGLKGDIISVIIANKPEASLERQCVNLENEKGTKPPLQEAGSKKGRESVPTKPTPGERRYICAECGKAFSNSSNLTKHRRTHTGEKPYVCTKCGKAFSHSSNLTLHYRTHLVDRPYDCKCGKAFGQSSDLLKHQRMHTEEAPYQCKDCGKAFSGKGSLIRHYRIHTGEKPYQCNECGKSFSQHAGLSSHQRLHTGEKPYKCKECGKAFNHSSNFNKHHRIHTGEKPYWCHHCGKTFCSKSNLSKHQRVHTGEGEAP
# B4: GRHL1, Q9NZI5 (protein)
# chain: MTQEYDNKRPVLVLQNEALYPQRRSYTSEDEAWKSFLENPLTAATKAMMSINGDEDSAAALGLLYDYYKVPRERRSSTAKPEVEHPEPDHSKRNSIPIVTEQPLISAGENRVQVLKNVPFNIVLPHGNQLGIDKRGHLTAPDTTVTVSIATMPTHSIKTETQPHGFAVGIPPAVYHPEPTERVVVFDRNLNTDQFSSGAQAPNAQRRTPDSTFSETFKEGVQEVFFPSDLSLRMPGMNSEDYVFDSVSGNNFEYTLEASKSLRQKPGDSTMTYLNKGQFYPITLKEVSSSEGIHHPISKVRSVIMVVFAEDKSREDQLRHWKYWHSRQHTAKQRCIDIADYKESFNTISNIEEIAYNAISFTWDINDEAKVFISVNCLSTDFSSQKGVKGLPLNIQVDTYSYNNRSNKPVHRAYCQIKVFCDKGAERKIRDEERKQSKRKVSDVKVPLLPSHKRMDITVFKPFIDLDTQPVLFIPDVHFANLQRGTHVLPIASEELEGEGSVLKRGPYGTEDDFAVPPSTKLARIEEPKRVLLYVRKESEEVFDALMLKTPSLKGLMEAISDKYDVPHDKIGKIFKKCKKGILVNMDDNIVKHYSNEDTFQLQIEEAGGSYKLTLTEI
# B5: MYBL1, P10243 (protein)
# chain: MAKRSRSEDEDDDLQYADHDYEVPQQKGLKKLWNRVKWTRDEDDKLKKLVEQHGTDDWTLIASHLQNRSDFQCQHRWQKVLNPELIKGPWTKEEDQRVIELVQKYGPKRWSLIAKHLKGRIGKQCRERWHNHLNPEVKKSSWTEEEDRIIYEAHKRLGNRWAEIAKLLPGRTDNSIKNHWNSTMRRKVEQEGYLQDGIKSERSSSKLQHKPCAAMDHMQTQNQFYIPVQIPGYQYVSPEGNCIEHVQPTSAFIQQPFIDEDPDKEKKIKELEMLLMSAENEVRRKRIPSQPGSFSSWSGSFLMDDNMSNTLNSLDEHTSEFYSMDENQPVSAQQNSPTKFLAVEANAVLSSLQTIPEFAETLELIESDPVAWSDVTSFDISDAAASPIKSTPVKLMRIQHNEGAMECQFNVSLVLEGKKNTCNGGNSEAVPLTSPNIAKFSTPPAILRKKRKMRVGHSPGSELRDGSLNDGGNMALKHTPLKTLPFSPSQFFNTCPGNEQLNIENPSFTSTPICGQKALITTPLHKETTPKDQKENVGFRTPTIRRSILGTTPRTPTPFKNALAAQEKKYGPLKIVSQPLAFLEEDIREVLKEETGTDLFLKEEDEPAYKSCKQENTASGKKVRKSLVLDNWEKEESGTQLLTEDISDMQSENRFTTSLLMIPLLEIHDNRCNLIPEKQDINSTNKTYTLTKKKPNPNTSKVVKLEKNLQSNCEWETVVYGKTEDQLIMTEQARRYLSTYTATSSTSRALIL
# Target: nucleoprotein N of Crimean-Congo hemorrhagic fever virus
# Assay: AlphaScreen luminescence signal relative to Venus negative control (fold); higher = stronger binding to CCHFV N
# Procedure: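 AlphaScreen binding of cell-free made, FLAG-GST-tagged human transcription factors and regulators (crude translation products) to biotinylated N protein; signal as fold of the FLAG-GST-Venus control. One pass.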
row,Binder,AlphaScreen luminescence signal
1,B1,2.65
2,B2,1.26
3,B3,2.37
4,B4,2.74
5,B5,2.79
